Some of the results follow. The energies were worked out here from pooled read counts, against the library average; single values are noisy.
The sequences below were run against T1, Pho4 (S. cerevisiae) (UniProt P07270) (assay: relative binding free energy (BET-seq); higher = weaker binding). Conditions: reference: library average.
T1 sequence: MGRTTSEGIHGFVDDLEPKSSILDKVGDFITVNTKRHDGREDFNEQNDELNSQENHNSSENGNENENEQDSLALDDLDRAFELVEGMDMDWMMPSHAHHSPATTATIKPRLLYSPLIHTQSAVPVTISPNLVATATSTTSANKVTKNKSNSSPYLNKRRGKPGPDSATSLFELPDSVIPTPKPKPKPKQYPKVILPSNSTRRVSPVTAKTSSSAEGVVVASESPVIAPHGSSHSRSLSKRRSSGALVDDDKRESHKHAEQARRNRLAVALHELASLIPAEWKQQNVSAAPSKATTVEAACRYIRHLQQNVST

Sequence	relative binding free energy
GCTGGCACGTGTGGTT	0.06 kcal/mol
TGAGACACGTGATTGA	0.25 kcal/mol
TGTAACACGTGTCTGA	0.12 kcal/mol
TGCGGCACGTGTATTG	0.03 kcal/mol
TTTGTCACGTGAACAG	0.13 kcal/mol
CTGGGCACGTGGGGGC	-0.18 kcal/mol
AGTTCCACGTGAGTGG	0.44 kcal/mol
GTTGGCACGTGTATAC	-0.12 kcal/mol
GTAAGCACGTGAGGGT	0.16 kcal/mol
GGGTGCACGTGCTATA	-0.08 kcal/mol
AGTATCACGTGGAGAG	0.14 kcal/mol
CATTTCACGTGAGTGG	0.33 kcal/mol
TCGAGCACGTGGTGTG	-0.15 kcal/mol
TTTTTCACGTGATCGC	0.25 kcal/mol
CGCAGCACGTGTGGGA	0 kcal/mol
GGGGGCACGTGCGTCA	-0.27 kcal/mol
TAGATCACGTGTGGCT	0.32 kcal/mol
TTGAGCACGTGAATCT	0.34 kcal/mol
GGGCTCACGTGTTGAG	0.31 kcal/mol
ATGGCCACGTGGTTAG	-0.21 kcal/mol
TGCTACACGTGAGGGG	0.15 kcal/mol
CCTATCACGTGGTGGT	0.08 kcal/mol
TTGTACACGTGTAAGA	0.09 kcal/mol
TTCATCACGTGTGTTC	0.26 kcal/mol
GGATTCACGTGCGTGT	0.18 kcal/mol
TGAAGCACGTGGTCGG	-0.21 kcal/mol

Sequence	relative binding free energy
GTATACACGTGCGGTT	0.11 kcal/mol
TATATCACGTGTACTT	0.24 kcal/mol
CTTTACACGTGTCTTT	0.13 kcal/mol
ATTTACACGTGGGGAA	0.01 kcal/mol
TGAGGCACGTGGGTGT	-0.16 kcal/mol
CGCTGCACGTGGGTGA	-0.12 kcal/mol
TATGGCACGTGTGTCT	-0.09 kcal/mol
TTGGTCACGTGCTTCA	0.1 kcal/mol
TTTCTCACGTGATGTT	0.31 kcal/mol
GGCGACACGTGATGGG	0.22 kcal/mol
GTGGTCACGTGCACGG	0.07 kcal/mol
AGGTGCACGTGTGCTG	-0.06 kcal/mol
GGGGTCACGTGGAGCC	0.16 kcal/mol
AACTACACGTGGTTGG	0.15 kcal/mol
TGTACCACGTGGAGGT	-0.09 kcal/mol
CAGATCACGTGTGGTA	0.43 kcal/mol
TATGTCACGTGGGTGG	-0.04 kcal/mol
AAGTGCACGTGGTTGA	-0.27 kcal/mol
TCATTCACGTGGTAGT	0.16 kcal/mol
TGGTACACGTGGCTTG	-0.07 kcal/mol
GTGATCACGTGGGTTC	0.12 kcal/mol
AGGGCCACGTGCGGAG	-0.21 kcal/mol
AGCTGCACGTGGGGGC	-0.12 kcal/mol
AGTTTCACGTGCTGCG	0.16 kcal/mol
AGGCGCACGTGAAGGT	0.21 kcal/mol
TGTTTCACGTGGTTAG	0.25 kcal/mol

Sequence	relative binding free energy
AATCGCACGTGAAGGG	0.38 kcal/mol
CGTTTCACGTGTTATA	0.22 kcal/mol
ATGTTCACGTGAATTG	0.24 kcal/mol
AATGACACGTGGTTGT	-0.11 kcal/mol
GGTGACACGTGTGACG	0.08 kcal/mol
TGCGACACGTGTGCGT	-0.06 kcal/mol
ATGAGCACGTGGCTTT	-0.28 kcal/mol
TGATGCACGTGTCGCG	-0.03 kcal/mol
TGTTTCACGTGTAAGC	0.44 kcal/mol
TGAGTCACGTGGGTAT	0.07 kcal/mol
GCTGCCACGTGAGGTG	0.2 kcal/mol
CTCGGCACGTGGGTTT	-0.21 kcal/mol
TATGGCACGTGGAGAT	-0.09 kcal/mol
TTAGTCACGTGTTTGA	0.13 kcal/mol
TTGATCACGTGAAGTA	0.35 kcal/mol
GTTTGCACGTGTGTAC	-0.01 kcal/mol
TTGTACACGTGTTCTT	-0.08 kcal/mol
GGTTACACGTGAGGAC	0.29 kcal/mol
AGTATCACGTGAGCGT	0.15 kcal/mol
TGATGCACGTGTACGT	-0.04 kcal/mol
TCTGCCACGTGTTGGT	-0.06 kcal/mol
GGGGACACGTGAATGG	0.24 kcal/mol
TTGTGCACGTGGATTA	0.03 kcal/mol
TCTTGCACGTGCGGGT	-0.09 kcal/mol
TGGTTCACGTGATGAG	0.43 kcal/mol
GAATGCACGTGAGGTA	0.31 kcal/mol

Sequence	relative binding free energy
AACATCACGTGTTTGG	0.18 kcal/mol
TATCGCACGTGGGTAT	-0.17 kcal/mol
CGTTTCACGTGTGATT	0.42 kcal/mol
GTTGCCACGTGGTATA	0 kcal/mol
TTTGGCACGTGGGGCG	-0.29 kcal/mol
TTTTCCACGTGGTTGA	-0.01 kcal/mol
GTGAGCACGTGGATAG	-0.1 kcal/mol
AGTGTCACGTGTGTCA	-0.02 kcal/mol
AGGTCCACGTGTGATG	0.04 kcal/mol
GGGGTCACGTGGCTAG	0.08 kcal/mol
TAGAGCACGTGTTTGA	-0.17 kcal/mol
ATTCACACGTGATTGT	0.17 kcal/mol
TGAGTCACGTGCGAGC	0.25 kcal/mol
TAGGGCACGTGACGGT	-0.02 kcal/mol
TTTGACACGTGGGGAA	-0.08 kcal/mol
TGTGTCACGTGGTGTA	-0.01 kcal/mol
TGAACCACGTGGGGGG	-0.26 kcal/mol
AGTGGCACGTGATGAA	0.04 kcal/mol
TTTTACACGTGGCCTG	-0.02 kcal/mol
AGGGCCACGTGCGGAA	0 kcal/mol
GGGAGCACGTGATAAG	0.06 kcal/mol
ATCGTCACGTGGTCGG	0.06 kcal/mol
TCACTCACGTGATGGG	0.38 kcal/mol
GTGTACACGTGAGATG	0.2 kcal/mol
TTGGGCACGTGTTTGA	-0.03 kcal/mol
GGCTTCACGTGTGATA	0.36 kcal/mol

Sequence	relative binding free energy
GGGACCACGTGGTGTA	-0.23 kcal/mol
CAGTTCACGTGAGCGG	0.32 kcal/mol
ATGTACACGTGGTATT	0.05 kcal/mol
AGATACACGTGGGTTA	-0.05 kcal/mol
ATGGACACGTGTTTTA	0.04 kcal/mol
AGGATCACGTGATTGT	0.31 kcal/mol
TCTGTCACGTGGTGTG	0.07 kcal/mol
GAATTCACGTGGGGTC	0.23 kcal/mol
AATAGCACGTGGGGCT	-0.21 kcal/mol
GGTGCCACGTGAGGTC	0.16 kcal/mol
AAGGGCACGTGTTTCA	-0.11 kcal/mol
TTTGGCACGTGTCATC	-0.05 kcal/mol
TTGGTCACGTGGGATG	0.07 kcal/mol
ATTGTCACGTGATTTA	0.28 kcal/mol
TGAATCACGTGGCTTT	0.13 kcal/mol
TTCCACACGTGGGGGG	-0.13 kcal/mol
ACCGGCACGTGGGGGA	-0.28 kcal/mol
GTTATCACGTGGTATT	0.13 kcal/mol
AGGTGCACGTGTTCAT	0.12 kcal/mol
ATTCTCACGTGGCGGG	0.18 kcal/mol
GTGTACACGTGAGTGT	0.33 kcal/mol
CTTGGCACGTGTGTCT	-0.07 kcal/mol
GTGTTCACGTGAGAAG	0.37 kcal/mol
TCGTGCACGTGATGGT	0.1 kcal/mol
CAGATCACGTGGAGGT	0.19 kcal/mol
ATGGACACGTGGGTGG	-0.13 kcal/mol

Sequence	relative binding free energy
GTAGTCACGTGTTCGA	0.05 kcal/mol
ATGATCACGTGTGTGT	0.15 kcal/mol
TTGCGCACGTGTTATA	-0.1 kcal/mol
TCTTGCACGTGCTGTG	-0.04 kcal/mol
AGAGCCACGTGTAGGG	-0.2 kcal/mol
GAGGTCACGTGTTGGT	0.22 kcal/mol
TGGTCCACGTGTAGTG	0.02 kcal/mol
TATTTCACGTGCGTGC	0.18 kcal/mol
TTTAACACGTGTGGCG	0.11 kcal/mol
GTTGTCACGTGTCGAA	0.19 kcal/mol
TTGGGCACGTGTTGTG	-0.1 kcal/mol
GGTGGCACGTGGGTGC	-0.2 kcal/mol
CGAATCACGTGTGGGA	0.25 kcal/mol
CGGTGCACGTGGTGCG	-0.1 kcal/mol
TTCAACACGTGTTGCG	0.22 kcal/mol
CAGGCCACGTGTGGGG	-0.12 kcal/mol
TGTGCCACGTGTATTG	-0.08 kcal/mol
TAATGCACGTGATTTA	-0.08 kcal/mol
TCAGGCACGTGATGTG	-0.02 kcal/mol
TGTACCACGTGCAGGG	-0.1 kcal/mol
TGTTTCACGTGGGACT	0.24 kcal/mol
GATGTCACGTGTGCTG	0.19 kcal/mol
GATGGCACGTGGGATA	-0.14 kcal/mol
GTATGCACGTGGGCGG	-0.16 kcal/mol
TGTTGCACGTGGGTCG	-0.2 kcal/mol
TGTTACACGTGAGGTG	0.23 kcal/mol

Sequence	relative binding free energy
AAGAGCACGTGGCGGT	-0.16 kcal/mol
TTGAGCACGTGAGTGA	0.14 kcal/mol
ATTGACACGTGGCGAG	0.07 kcal/mol
CAGTGCACGTGTTAGG	-0.08 kcal/mol
ATGAGCACGTGGACGT	0 kcal/mol
GCGTACACGTGGTTGT	0.07 kcal/mol
TAATTCACGTGGGAGG	0.14 kcal/mol
AAGTACACGTGCAGGT	0.04 kcal/mol
TCTGTCACGTGATGGT	0.2 kcal/mol
TCGGACACGTGTAGGC	0.26 kcal/mol
ATAAACACGTGATTTG	0.11 kcal/mol
GTGAACACGTGGTGTA	-0.04 kcal/mol
GAGTTCACGTGTGTGT	0.34 kcal/mol
TCTGTCACGTGGAGTA	0.07 kcal/mol
ATTGTCACGTGAAGGA	0.32 kcal/mol
TGGTACACGTGCTCGT	-0.04 kcal/mol
GACGACACGTGTGGGT	0.02 kcal/mol
AGACTCACGTGTTGGT	0.22 kcal/mol
TCAATCACGTGGCGGG	0.21 kcal/mol
TAAATCACGTGGGGGG	0.04 kcal/mol
AGTAACACGTGTGAGA	0.07 kcal/mol
TAACGCACGTGAGGGT	0.16 kcal/mol
AGACGCACGTGGATGG	-0.07 kcal/mol
TGAAGCACGTGTAGAG	0.02 kcal/mol
GTCTTCACGTGTTTGG	0.34 kcal/mol
TCAGTCACGTGGTCGT	0.06 kcal/mol

Sequence	relative binding free energy
CAGAACACGTGGGTGG	-0.17 kcal/mol
GTTGGCACGTGAAAAA	0.28 kcal/mol
AGCTGCACGTGGTTTT	-0.09 kcal/mol
TACATCACGTGATGGT	0.09 kcal/mol
AGAGGCACGTGCATGG	-0.25 kcal/mol
TCGGGCACGTGACTTG	0.07 kcal/mol
ACAGGCACGTGATATG	0.11 kcal/mol
GATGTCACGTGGATTT	0.21 kcal/mol
GTGTCCACGTGCGGTG	0.09 kcal/mol
GAGGGCACGTGTTTGC	0.03 kcal/mol
CGTGGCACGTGGCGGG	-0.19 kcal/mol
GCCGGCACGTGGTGTG	-0.28 kcal/mol
GTTGCCACGTGAAGTG	0.23 kcal/mol
TCTTTCACGTGGGTCT	0.12 kcal/mol
GAGAGCACGTGCTGGT	0.05 kcal/mol
TTTTGCACGTGTGGCT	0.11 kcal/mol
GGCTGCACGTGAGTTT	0.34 kcal/mol
ATTATCACGTGGTGAT	0.04 kcal/mol
CTATTCACGTGTTGTC	0.31 kcal/mol
TCGAACACGTGGGGGG	-0.17 kcal/mol
TTTGGCACGTGTGGTA	-0.02 kcal/mol
TGTAGCACGTGATCGT	-0.03 kcal/mol
ATCTTCACGTGAGTGT	0.38 kcal/mol
TGTTTCACGTGCGTTG	0.27 kcal/mol
AGGTACACGTGTAATG	0.04 kcal/mol
GTTAACACGTGGGGGA	-0.06 kcal/mol

Sequence	relative binding free energy
ATGCTCACGTGGGTCG	0.06 kcal/mol
TTCTTCACGTGTGAAT	0.24 kcal/mol
TGGGTCACGTGGATAT	0.2 kcal/mol
ATGTTCACGTGCTTAT	0.16 kcal/mol
GCGTGCACGTGTTATT	0.04 kcal/mol
TTAGACACGTGTTGGT	0.01 kcal/mol
GGGGGCACGTGTTTGC	-0.04 kcal/mol
AGTTCCACGTGGTAGT	0.03 kcal/mol
GGTTGCACGTGGCTGC	0.05 kcal/mol
TTTGACACGTGAGCGG	0.2 kcal/mol
GGTTGCACGTGATATG	0.06 kcal/mol
TGATTCACGTGATATG	0.32 kcal/mol
GTTTCCACGTGGTGGG	0.13 kcal/mol
ACGGTCACGTGGTAGA	0.08 kcal/mol
AAAGTCACGTGGGCTA	0.02 kcal/mol
TGTGTCACGTGCCTGT	-0.06 kcal/mol
GGATGCACGTGAAGGG	0.26 kcal/mol
CGTAACACGTGAGGGT	0.29 kcal/mol
AGAGGCACGTGTGTCA	-0.05 kcal/mol
ACAGGCACGTGGTTTT	-0.12 kcal/mol
ATTTCCACGTGTGGCG	0.22 kcal/mol
ATGGGCACGTGGCTGT	-0.16 kcal/mol
